# Experimental data: the supplement of paper PMC11417369
# The other results are listed elsewhere or left out.
# Tested on: PfAP2-HC AP2 domain (GST-tagged)
# Test: gcPBM binding intensity (ln(normalized median fluorescence intensity)); higher = stronger DNA binding
# Procedure, shortened: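 Binding of GST-tagged P. falciparum DNA-binding domains, expressed in E. coli and used at about 25 μg on average, was carried out for 1 h in 1× PBS containing 1% milk, 0.2 mg/ml BSA, 0.5% salmon testes DNA and 0.03% Triton X-100. The target was an Agilent 4 × 180k array of primer-extended double-stranded 36-bp intergenic genomic probes plus negative controls, read with Alexa488 anti-GST antibody at 488 nm. Binding intensity is the highest Masliner-normalised natural-log median intensity across replicate spots of either probe orientation.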
row,Sequence,gcPBM binding intensity (ln)
1,AATTATTTTATGTGAGGTACACCACACATGAAGGGG [XGTACX_site8450],9.59
2,TAAATATATTCAATCACACACATTCGTTTTTTTTTT [CACACA_site234],9.97
3,TATATATATTTAAGGTGTACATAAATAACAAAATAT [XGTACX_site2641],9.74
4,AAGTGTATACAGAAGAGTACAAACAATTTTTTTCTT [XGTACX_site7387],9.79
5,AAAAAACACAGACACACACACATATACATACATACA [CACACA_site2666],10.7
6,ATATTTCGTCTAAAAAGTACACAACAATAAAAAGTA [XGTACX_site6668],9.63
7,TTTTTTAAATAATATTGTACAAAAAATGTATAAATA [XGTACX_site3010],9.42
8,TTAGGTTTATACACTACACACATTATTCATAAAAAA [CACACA_site871],9.83
9,TACAAGCCCAATTCAAGTACATATATATATATATAT [XGTACX_site5569],9.54
10,AGTTTGTCAATCAACACACACCTATTTATTATATAT [CACACA_site6030],9.93
11,TATTTATGTATATGCTGTACGCATTTGTGAAACATA [XGTACX_site4688],9.58
12,AACCAATTAGAAGGATCCAGAACTTATTTGTTTTTA [CACACA_negctrl_site1744],9.47
13,TAAACTTTCCAGTGTTGTACATAATAATTATTATAT [XGTACX_site8896],9.69
14,AAAGATATGAAATATACACACTTCTTTGGTATTATT [CACACA_site6352],9.76
15,ATTCATTCATATGTTACACACACACGCCCACATAAA [CACACA_site7513],10.6
16,TTATATATATATATATATATTTACATAATAATATGT [GTGCAC_negctrl_site388],9.64
17,TAAAAAAAGGTTATTGGTACACACATATGTATATAT [XGTACX_site1029],9.96
18,TAATATTCAATTATACGTACACATATATATATATAT [XGTACX_site4245],9.97
19,TATGAAAGAAATAGTACACACATAAACATTTGTAAA [CACACA_site2783],10.1
20,GTTGCGTATATATACACACATACATATATATATATA [CACACA_site1607],9.76
21,TTATATAATAAAAATTGTACATATTATATATATATT [XGTACX_site3427],9.58
22,GTTTGATTAAACTTGACACACATATATATAAATATA [CACACA_site1784],9.65

row,Sequence,gcPBM binding intensity (ln)
1,AAAAAAAAAAAAGAAACACACATATATATATATATA [CACACA_site140],9.68
2,AGAAAATATACAAAACGTACTTATATATTATATCTA [XGTACX_site3104],9.61
3,GTTAGAGGGAAAAAGAGTACATATATGTGGATAATT [XGTACX_site2064],9.67
4,TCATATATCATAACAGTGCAAAAAAAAAAAAATTAT,9.64
5,ACTTTACAATATATATGTACATATTAATAAACATAT [XGTACX_site3689],9.79
6,GAGTTTTTTTAATGATGTACATTTTAAAAATAAACG [XGTACX_site1036],9.29
7,AAAATAATATATGTATGTACATATACACATATAGAA [XGTACX_site2218],9.86
8,AAATGTTATAACTCTTGAAAAAACAAAATATCATCA [CACACA_negctrl_site1156],9.55
9,AAATATAAACGGCACACACACAAAAAAAGAAAAAAA [CACACA_site649],11
10,AGAAACCTTGTTAGTTAGCATATATATATATATATA [CACACA_negctrl_site372],9.57
11,TATTTTATACATATTTTACACACTAATATATACATA [CACACA_site7998],9.78
12,TTTATTATACAAAATTGTACTTTATAATTTTATGTA [XGTACX_site5846],9.57
13,AAATATTACGGAATAAAGAGCTTTTAAATAATTTTA [CACACA_negctrl_site1700],9.53
14,ATACAAAATTTTTAAGAACACACAAAAATGTACTAT [CACACA_site8817],9.74
15,TGAGGTAACTAAATATGTACGTAACGAAGATACATA [XGTACX_site8231],9.72
16,TTTATAAAAATGAACACACACATATATATATATATA [CACACA_site3493],9.86
17,AAATATTTATAGGTTTGTACTTATAAATAAAAAAAA [XGTACX_site7360],9.5
18,AATATGAAAAGATGAACAACAAAATGGAGAACAATA [GTGCAC_negctrl_site612],9.97
19,TACTTACACTGTTTTTGTACTTATTTCCCTTTTATT [XGTACX_site2158],9.96
20,AATCACAAATAAAATAATATGACACAATATAAAATA [CACACA_negctrl_site537],9.76
21,TTCTTGTATTTTCATAGTACATATAATGTCGTATTA [XGTACX_site600],9.82
22,TAATTTCTTATGTATTGTACAAATAATGTATGATAT [XGTACX_site270],9.47

row,Sequence,gcPBM binding intensity (ln)
1,GCGTTATTAAATAATTCACACACATATATATATATA [CACACA_site8711],10.1
2,GAACGCCATTCACATAAAGGGATACATAAATAAATA [XGTACX_negctrl_site330],9.49
3,AAGAAAAACTTTACGTGTACCAAACGTCATGCCAAC [XGTACX_site2575],9.58
4,ATGAAAAAATTTATATGTACTTAAAATATAATCATA [XGTACX_site1228],9.33
5,TATATTATTAAGATATGTACATAATTATAAATTTAA [XGTACX_site6848],9.45
6,ATAAATAAAGGACACACACACACACTAGAAAAAAAA [CACACA_site5450],11.1
7,AAAATAAAATTAGTTGCATGCAACTTAAACAGAAAT [TGCATGCA_site860],10.1
8,TTGTGCTTGATATCACGGACAAGCTCATATTATATA [XGTACX_site4553],9.44
9,AACAAATACAGACACACACACACACTAATAAAAAAA [CACACA_site8067],11.6
10,GATATATATTAATATACACACACACCGATATATATA [CACACA_site8462],10.2
11,TATTTTTATATTTTTGCACACATTCTTTACTCTTCA [CACACA_site2211],10.2
12,AAAAATTTTATATTCACACACATATATATATATATA [CACACA_site624],9.98
13,TTTATATTTTATAAATTATTCATAAATATATTTGTA [TGCATGCA_negctrl_site175],9.33
14,TTTTGAAACATATGATGTACACGAACATTTAAAAAA [XGTACX_site474],9.56
15,AAATTCCACCAACACACACACATATAAATAAATAAA [CACACA_site1233],11
16,AATAAATAGATAAGCACACAAGCATATAGACATATA [CACACA_site222],10.1
17,TATAAATAAAAACACACACACACATATATATATATA [CACACA_site2268],10.7
18,CTCTATAAATGCTGCACACACATTTAATTATTTAAG [CACACA_site2582],9.9
19,TATAAATATAAATATACACACATATTTATATTTATA [CACACA_site7053],9.69
20,AAATGAAATACATCCTGTACATAGTAATGCTAACAA [XGTACX_site6600],9.73
21,TTTTACAATGAAAGGTGTACAAGTAACAGTAGAACA [XGTACX_site1528],9.83
22,ATAAAAGATATTTTTACACACTTTTGATGAGATCGT [CACACA_site3053],9.71

row,Sequence,gcPBM binding intensity (ln)
1,ATACCAACATATTATACACACCTTTATATTTTTTTT [CACACA_site5217],10.1
2,GGTTGTATAAGTTTTTGTACATATATATATATATAT [XGTACX_site7487],9.84
3,TTCAAGGTTTTAGATTGTACAATTATTATATATATA [XGTACX_site8982],9.56
4,TGAGCATAAAAAGGGTGTACTTAAATATATTATATA [XGTACX_site7556],9.57
5,GAATATAATCTGTATTGTACGAAAGTTGAACACTTG [XGTACX_site8895],9.61
6,TTGTATTATTATGTTGCACACATTTTATATAAAATA [CACACA_site3641],9.91
7,TATATATATATATATATATATACAAATATATATTAT [CACACA_negctrl_site1729],9.52
8,TTTAGATAATTCATTACACACATGTATTTATATATA [CACACA_site5847],9.79
9,TTTTTGTAAAAACACACACACAAACAGAAAAAATAA [CACACA_site2076],10.3
10,TGTGCCCAAAATTATGCACACACCTAAAATTAATTT [CACACA_site2914],9.85
11,ATGGTAGTTCTCCATGCATGCCTTTTTATTATCATA [TGCATGCA_site681],10
12,ACTATTTAGTCTGGTGGTACTTTATATATAATTTCT [XGTACX_site5618],10.5
13,ATATGTGTATGTGCGTGTACATATCTATACAGTTGT [XGTACX_site6540],9.87
14,TTTTATCTTTTTTTATTTTAATGTATTATTTTTATG [XGTACX_negctrl_site24],9.69
15,ATTATCATAATGTTCACACATATGGTATATATAGAT [CACACA_site6113],9.7
16,TAATAAGAAATAACAGGTACACATATATAAATATTA [XGTACX_site2976],9.78
17,ATATGTAGATGATATTATTACTTTTCAAAAATTCAA [CACACA_negctrl_site933],9.6
18,TTTTTCATTAATACAAGTACAAAATGATGTTGACAT [XGTACX_site1475],9.27
19,AAGTATAAAAAAAGGCGTACAAAAAAAAAAAAAAAA [XGTACX_site7309],9.1
20,TTTTTGTATGCTTCCCGATTACATTATGTTGTAAAT [CACACA_negctrl_site227],9.77
21,ATTTATGTTATATATACACACACAAAAGAAAAAAAA [CACACA_site8977],9.96
22,TCCTACATATAAAAATGTACCCATTGTTTTTTTTTT [XGTACX_site7205],9.64
